Measured values: PMC9604039
Like-named read-outs stand apart in the source and are kept apart here. Results are given in words; binding and its absence hold for the method and conditions named. For part of these data: Binding seen in cells or lysates may run through a third protein. Some binding calls cover weakened binding; strength is not graded here. For part of these data: Where a sequence is shown, tags or fusion partners need not be part of it.

T1: OsCIPK17 (BiFC fusion) (rice (Oryza sativa)) (UniProt Q75L42)
T1 sequence: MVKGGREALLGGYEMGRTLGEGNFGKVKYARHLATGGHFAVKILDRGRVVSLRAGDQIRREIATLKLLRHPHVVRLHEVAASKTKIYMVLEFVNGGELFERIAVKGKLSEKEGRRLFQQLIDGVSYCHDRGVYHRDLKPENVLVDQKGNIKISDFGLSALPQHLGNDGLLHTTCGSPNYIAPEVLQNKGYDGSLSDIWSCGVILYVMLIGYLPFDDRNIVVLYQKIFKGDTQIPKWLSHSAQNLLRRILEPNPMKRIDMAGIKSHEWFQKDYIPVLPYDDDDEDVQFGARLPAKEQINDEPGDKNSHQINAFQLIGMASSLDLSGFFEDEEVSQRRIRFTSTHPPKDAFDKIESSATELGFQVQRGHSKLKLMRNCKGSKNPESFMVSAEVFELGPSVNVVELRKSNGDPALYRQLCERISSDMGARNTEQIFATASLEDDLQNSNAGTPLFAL

T2: OsCIPK17 (rice (Oryza sativa)) (UniProt Q75L42)
T2 sequence: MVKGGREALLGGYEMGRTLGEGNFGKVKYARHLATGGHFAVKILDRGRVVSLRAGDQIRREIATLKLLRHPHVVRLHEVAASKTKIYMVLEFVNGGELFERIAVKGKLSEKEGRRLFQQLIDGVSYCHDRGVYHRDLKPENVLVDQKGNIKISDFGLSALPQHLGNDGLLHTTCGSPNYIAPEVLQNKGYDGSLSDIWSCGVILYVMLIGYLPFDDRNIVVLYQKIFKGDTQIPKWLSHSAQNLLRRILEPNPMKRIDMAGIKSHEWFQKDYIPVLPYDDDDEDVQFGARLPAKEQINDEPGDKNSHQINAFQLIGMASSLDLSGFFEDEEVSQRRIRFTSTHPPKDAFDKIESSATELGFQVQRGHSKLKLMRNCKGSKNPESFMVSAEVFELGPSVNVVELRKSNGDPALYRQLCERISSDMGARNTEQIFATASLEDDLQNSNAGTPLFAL

T3: OsCIPK23 (rice (Oryza sativa)) (UniProt Q6ZLP5)
T3 sequence: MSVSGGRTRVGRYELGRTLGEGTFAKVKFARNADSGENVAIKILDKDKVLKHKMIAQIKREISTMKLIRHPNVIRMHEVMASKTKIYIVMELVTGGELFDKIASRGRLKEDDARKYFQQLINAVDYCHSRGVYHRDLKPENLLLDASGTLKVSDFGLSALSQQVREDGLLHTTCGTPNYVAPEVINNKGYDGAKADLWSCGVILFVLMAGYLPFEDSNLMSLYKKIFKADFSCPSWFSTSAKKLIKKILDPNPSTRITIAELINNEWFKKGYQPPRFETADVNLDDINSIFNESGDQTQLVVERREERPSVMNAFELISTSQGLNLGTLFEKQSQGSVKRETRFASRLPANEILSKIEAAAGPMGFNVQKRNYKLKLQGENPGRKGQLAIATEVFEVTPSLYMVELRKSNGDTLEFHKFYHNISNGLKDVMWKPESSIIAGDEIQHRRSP

T4: OsCIPK24 (rice (Oryza sativa)) (UniProt Q69Q47)
T4 sequence: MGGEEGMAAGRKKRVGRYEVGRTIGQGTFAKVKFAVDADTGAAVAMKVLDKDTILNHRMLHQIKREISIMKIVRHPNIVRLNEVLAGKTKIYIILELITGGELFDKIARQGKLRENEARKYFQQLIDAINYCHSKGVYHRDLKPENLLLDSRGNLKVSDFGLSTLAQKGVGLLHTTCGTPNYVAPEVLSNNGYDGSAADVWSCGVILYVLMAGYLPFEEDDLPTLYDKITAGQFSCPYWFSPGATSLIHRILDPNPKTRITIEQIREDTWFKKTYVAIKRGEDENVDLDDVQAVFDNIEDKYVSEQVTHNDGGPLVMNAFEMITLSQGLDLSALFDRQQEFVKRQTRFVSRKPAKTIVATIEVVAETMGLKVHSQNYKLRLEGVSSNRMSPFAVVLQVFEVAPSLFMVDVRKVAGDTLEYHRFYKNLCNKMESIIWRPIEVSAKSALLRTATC

T5: OsCIPK8 (rice (Oryza sativa)) (UniProt Q5JLD8)
T5 sequence: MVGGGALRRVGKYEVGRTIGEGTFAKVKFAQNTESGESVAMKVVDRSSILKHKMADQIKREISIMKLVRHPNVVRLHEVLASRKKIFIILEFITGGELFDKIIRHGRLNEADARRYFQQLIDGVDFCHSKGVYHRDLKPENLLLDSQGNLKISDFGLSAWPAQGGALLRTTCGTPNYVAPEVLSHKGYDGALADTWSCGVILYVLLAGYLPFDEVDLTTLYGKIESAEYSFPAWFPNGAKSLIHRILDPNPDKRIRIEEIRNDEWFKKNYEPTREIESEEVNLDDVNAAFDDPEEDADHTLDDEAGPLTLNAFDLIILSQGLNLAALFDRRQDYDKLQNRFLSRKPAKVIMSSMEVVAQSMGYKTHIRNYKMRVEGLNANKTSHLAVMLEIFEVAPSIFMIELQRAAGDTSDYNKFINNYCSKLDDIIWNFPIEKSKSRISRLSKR


Experiments:
[1] = molecular target: T1, OsCIPK17 (BiFC fusion) (rice (Oryza sativa)); assay: split reporter; BiFC with pSPYCE/pSPYNE fusions expressed in Nicotiana benthamiana leaves for three days; YFP fluorescence by confocal microscopy
[2] = molecular target: T2, OsCIPK17 (rice (Oryza sativa)); assay: two-hybrid; Matchmaker Gold system, Y2HGold strain; OsCBL in pGADT7, OsCIPK in pGBKT7; growth on DDO, then TDO and QDO media
[3] = molecular target: T3, OsCIPK23 (rice (Oryza sativa)); assay: as above
[4] = molecular target: T4, OsCIPK24 (rice (Oryza sativa)); assay: as above
[5] = molecular target: T5, OsCIPK8 (rice (Oryza sativa)); assay: as above
[6] = molecular target: T2, OsCIPK17 (rice (Oryza sativa)); assay: two-hybrid; Y2H of OsCIPK17 with predicted target proteins; for OsJAMYB AbA and 3-AT were added to QDO medium to inhibit self-activation; vectors of the partners not stated
[7] = molecular target: T1, OsCIPK17 (BiFC fusion) (rice (Oryza sativa)); assay: split reporter; BiFC with pSPYCE/pSPYNE fusions expressed in Nicotiana benthamiana leaves for three days; YFP fluorescence by confocal microscopy; remark: listed apart in the source

binding [2] | binding [3] | binding [4] | binding [5] | binding [7] | Molecule | further results
 |  |  |  | binds | OsJAMYB (BiFC fusion) (protein, UniProt Q2QZJ8 1-285) MEMVLQRTSHHPVPGEQQEAAAELSSAELRRGPWTVDEDLTLINYISDHGEGRWNALARAAGLKRTGKSCRLRWLNYLRPDVKRGNFTAEEQLLILDLHSRWGNRWSKIAQHLPGRTDNEIKNYWRTRVQKHAKQLNCDVNSKRFKDAMKYLWMPRLAERIHARAGAVDDSGDYSNNDLSCVSGVTMATVANCFDGSPSMVTSSSSDSFTSESQDLKKINLHVHGDDEKMNSEDWMQEVDHEFWSTEIQPNNEQFQDQQLNGWVQGFSEGLSETLWSLEDIWKMQ | 
 |  |  |  | binds | OsCBL8 (BiFC fusion) (protein, UniProt Q3HRN9 1-213) MGCVSSKQFKRAAQHEDPAILAKETTFSVSEVEALFELFKKISHSIFRDGLIHKEEFQLALFRNSNKKNLFANRIFDLFDLKRNGVIDFGEFVRSLSIFHPETPLGDKIAFAFRLYDLRGTGCIEREELHEMVLALLNESDLFLSEEAVEQIVDQTFKQADLNDDGKIDPDEWKTFASKNPALLKNMTLPYLKDITMVFPSFILNSEVCEEEL | 

Second part, the molecule before the results:

Molecule | binding [2] | binding [3] | binding [4] | binding [5] | binding [7] | further results
OsCBL2 (BiFC fusion) (from UniProt Q3HRP5 1-225) |  |  |  |  |  | binding [1]: binds
OsCBL2 (from UniProt Q3HRP5 1-225) | binds | no binding | no binding | binds |  | 
OsJAMYB (protein, UniProt Q2QZJ8 1-285) MEMVLQRTSHHPVPGEQQEAAAELSSAELRRGPWTVDEDLTLINYISDHGEGRWNALARAAGLKRTGKSCRLRWLNYLRPDVKRGNFTAEEQLLILDLHSRWGNRWSKIAQHLPGRTDNEIKNYWRTRVQKHAKQLNCDVNSKRFKDAMKYLWMPRLAERIHARAGAVDDSGDYSNNDLSCVSGVTMATVANCFDGSPSMVTSSSSDSFTSESQDLKKINLHVHGDDEKMNSEDWMQEVDHEFWSTEIQPNNEQFQDQQLNGWVQGFSEGLSETLWSLEDIWKMQ |  |  |  |  |  | binding [6]: binds
OsCBL8 (protein, UniProt Q3HRN9 1-213) MGCVSSKQFKRAAQHEDPAILAKETTFSVSEVEALFELFKKISHSIFRDGLIHKEEFQLALFRNSNKKNLFANRIFDLFDLKRNGVIDFGEFVRSLSIFHPETPLGDKIAFAFRLYDLRGTGCIEREELHEMVLALLNESDLFLSEEAVEQIVDQTFKQADLNDDGKIDPDEWKTFASKNPALLKNMTLPYLKDITMVFPSFILNSEVCEEEL | binds | no binding | binds | binds |  | 
